From the supplement of paper PMC7826260
The other results are listed elsewhere or left out. Viral Rep nickase domains cut single-stranded DNA in vitro (1 h at 37 °C, 3 µM enzyme); the outer parts of the 90-letter strands are left off. The score is log2 (uncut reads / reads without enzyme); the lower, the more was cut; hits are not called. The scaling is to total reads; where an enzyme cuts many sequences, the uncut ones exceed 0.

Legend:
Assay in all cases: uncleaved DNA left, log2 of reads against the no-enzyme library (log2 ratio); higher = less cleavage (more negative = more Rep cleavage of the k-mer); sequences stand for … in CTCGTCCG…ACCGGAGA
[1] = test system: T1, Rep nickase domain of Muscovy duck circovirus
T1 sequence (residues 1-111 of Rep, tag left off): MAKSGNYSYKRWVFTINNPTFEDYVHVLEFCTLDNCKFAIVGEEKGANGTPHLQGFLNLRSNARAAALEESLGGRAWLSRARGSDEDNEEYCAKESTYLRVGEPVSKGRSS
Description: (§1)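 A pool of 90-nt single-stranded DNAs with seven random bases just before the constant AC of the nick site (name = the seven bases) was cut by 3 µM recombinant His6-SUMO-tagged Rep nickase domain (300 nM DNA, 50 mM HEPES pH 8.0, 50 mM NaCl, 1 mM MnCl2, 1 h, 37 °C, three replicates). Uncut DNA was amplified and sequenced.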

[2] = test system: T2, Rep nickase domain of banana bunchy top virus
T2 sequence (residues 1-94 of Rep, tag left off): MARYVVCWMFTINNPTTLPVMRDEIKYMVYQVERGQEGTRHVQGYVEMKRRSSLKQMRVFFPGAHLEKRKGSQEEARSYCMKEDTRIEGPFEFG
Description: as §1

[3] = test system: T3, Rep nickase domain of cabbage leaf curl virus
T3 sequence (residues 1-116 of Rep, tag left off): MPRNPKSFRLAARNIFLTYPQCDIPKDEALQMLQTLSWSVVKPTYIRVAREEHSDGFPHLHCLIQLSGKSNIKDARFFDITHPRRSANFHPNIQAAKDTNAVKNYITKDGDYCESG
Description: as §1

[4] = test system: T4, Rep nickase domain of chickpea chlorotic dwarf virus
T4 sequence (residues 1-124 of Rep, tag left off): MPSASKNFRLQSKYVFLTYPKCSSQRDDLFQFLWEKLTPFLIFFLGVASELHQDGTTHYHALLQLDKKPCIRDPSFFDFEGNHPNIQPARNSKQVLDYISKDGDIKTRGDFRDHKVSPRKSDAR
Description: as §1

[5] = test system: T5, Rep nickase domain of faba bean necrotic yellows virus
T5 sequence (residues 1-98 of Rep, tag left off): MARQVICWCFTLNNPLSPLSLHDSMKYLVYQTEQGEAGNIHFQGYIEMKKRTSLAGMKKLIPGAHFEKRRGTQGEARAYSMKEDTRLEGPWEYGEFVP
Description: as §1

[6] = test system: T6, Rep nickase domain of maize striate mosaic virus
T6 sequence (residues 1-117 of Rep, tag left off): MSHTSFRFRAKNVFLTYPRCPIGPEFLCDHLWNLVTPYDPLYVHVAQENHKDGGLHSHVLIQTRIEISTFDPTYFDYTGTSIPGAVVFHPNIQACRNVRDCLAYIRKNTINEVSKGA
Description: as §1

[7] = test system: T7, Rep nickase domain of porcine circovirus 2
T7 sequence (residues 2-116 of Rep, tag left off): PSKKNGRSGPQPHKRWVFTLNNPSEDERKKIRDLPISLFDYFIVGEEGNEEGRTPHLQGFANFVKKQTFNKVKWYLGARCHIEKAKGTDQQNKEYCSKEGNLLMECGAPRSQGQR
Description: as §1

[8] = test system: T8, Rep nickase domain of tomato golden mosaic virus
T8 sequence (residues 1-124 of Rep, tag left off): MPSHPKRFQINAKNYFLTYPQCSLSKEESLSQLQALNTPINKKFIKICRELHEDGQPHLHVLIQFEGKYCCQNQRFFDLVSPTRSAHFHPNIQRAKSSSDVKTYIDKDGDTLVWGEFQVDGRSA
Description: as §1

[9] = test system: T9, Rep nickase domain of tomato yellow leaf curl virus
T9 sequence (residues 1-136 of Rep, tag left off): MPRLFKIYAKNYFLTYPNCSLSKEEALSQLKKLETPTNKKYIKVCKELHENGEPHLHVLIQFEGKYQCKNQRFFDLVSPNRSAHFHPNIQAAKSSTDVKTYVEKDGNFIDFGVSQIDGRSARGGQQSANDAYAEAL
Description: as §1

[10] = test system: T10, Rep nickase domain of wheat dwarf virus
T10 sequence (residues 1-137 of Rep, tag left off): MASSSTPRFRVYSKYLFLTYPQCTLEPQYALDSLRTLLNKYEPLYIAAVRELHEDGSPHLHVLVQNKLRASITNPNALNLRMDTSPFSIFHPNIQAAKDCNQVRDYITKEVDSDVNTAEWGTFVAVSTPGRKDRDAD
Description: as §1

| Sequence | uncleaved DNA left (log2) [1] | uncleaved DNA left (log2) [2] | uncleaved DNA left (log2) [3] | uncleaved DNA left (log2) [4] | uncleaved DNA left (log2) [5] | uncleaved DNA left (log2) [6] | uncleaved DNA left (log2) [7] | uncleaved DNA left (log2) [8] | uncleaved DNA left (log2) [9] | uncleaved DNA left (log2) [10] |
| --- | --- | --- | --- | --- | --- | --- | --- | --- | --- | --- |
| ATGAGCT | 0.11 | 0.164 | -0.128 | -0.671 | 0.131 | -0.628 | 0.145 | 0.145 | 0.147 | -0.0224 |
| CACTTCG | 0.0132 | 0.00519 | -0.887 | 0.226 | 0.00529 | -0.744 | 0.0641 | -0.136 | 0.036 | -0.11 |
| GTTCGAC | 0.0419 | -0.0628 | 0.346 | 0.793 | -0.0311 | 1.34 | 0.0885 | 0.0851 | -0.00306 | -0.0617 |
| TCGCTGC | 0.0196 | -0.137 | 0.0408 | 0.0436 | 0.153 | -0.188 | -0.0309 | -0.0765 | -0.0696 | -0.151 |
| AAAACCC | -0.0613 | 0.0108 | -0.0646 | -1.03 | 0.0439 | -0.376 | -0.598 | -0.0342 | -0.112 | 0.0138 |
| TGGCGTA | 0.0436 | 0.039 | -0.43 | -0.445 | -0.0838 | -0.734 | 0.00213 | 0.024 | 0.0336 | -0.183 |
| TATCTTA | -0.109 | 0.0105 | -0.0954 | -2.14 | -0.0266 | -0.218 | -0.265 | -0.125 | 0.00248 | -0.0501 |
| ATCGCGG | -0.111 | -0.148 | -0.149 | 0.189 | -0.0459 | -0.18 | 0.0421 | -0.0781 | -0.149 | -0.101 |
| CAGGTAA | -0.192 | 0.0279 | 0.103 | 0.628 | -0.107 | 0.909 | 0.114 | 0.0522 | -0.0684 | 0.0408 |
| TATCAAC | -0.0518 | -0.0677 | 0.193 | -0.987 | -0.116 | -0.168 | -0.062 | -0.074 | 0.0415 | 0.0971 |
| TCAGGAA | 0.0382 | 0.0155 | 0.326 | 1.26 | 0.0442 | 1.6 | 0.149 | 0.0638 | -0.166 | 0.00857 |
| TTGTCTT | -2.82 | -1.17 | 0.0316 | -1.87 | -0.904 | -0.38 | -3.04 | -0.148 | 0.122 | -0.053 |
| TAACGAC | -0.073 | -0.146 | -0.338 | -0.945 | -0.02 | -0.51 | 0.089 | -0.0867 | -0.0866 | 0.0249 |
| GCCCAAA | -0.052 | 0.0781 | 0.191 | 0.613 | -0.0969 | 0.353 | 0.14 | -0.017 | 0.0162 | -0.00198 |
| TCAGTGC | 0.139 | 0.074 | -0.685 | -0.592 | 0.0765 | -1.17 | 0.243 | 0.11 | 0.212 | 0.0681 |
| TGCGGCC | -0.0141 | -0.0604 | -0.00319 | 0.00703 | -0.059 | -0.502 | 0.0628 | -0.0518 | -0.0346 | -0.0833 |
| GCCGTGT | -0.0999 | -0.144 | -0.209 | -0.0915 | -0.146 | -0.384 | -0.188 | -0.153 | -0.181 | -0.326 |
| TGCCCCA | -0.0429 | -0.12 | 0.209 | 0.0111 | -0.122 | 0.245 | -0.236 | -0.0336 | 0.039 | 0.0533 |
| CGGACCA | -0.00884 | 0.0321 | 0.476 | 0.989 | -0.126 | 1.32 | 0.0214 | -0.037 | 0.0103 | 0.115 |
| AACGTTC | 0.103 | 0.139 | -0.0547 | -1.93 | 0.249 | -0.557 | 0.14 | -0.00309 | 0.152 | 0.132 |
| TGACATC | 0.0792 | 0.00495 | 0.632 | 1.55 | -0.0502 | 1.81 | 0.0617 | -0.162 | -0.00141 | 0.171 |
| GGGCCGT | 0.057 | 0.0327 | 0.78 | 1.78 | -0.0883 | 2.21 | 0.128 | -0.0114 | 0.0243 | 0.078 |
| CTTTGCG | 0.00852 | 0.0862 | -0.213 | 1.22 | 0.174 | 0.961 | 0.147 | -0.0793 | -0.0813 | -0.0516 |
| CTGATCC | -0.0628 | -0.111 | 0.0127 | 0.362 | -0.257 | 0.167 | -0.0379 | -0.118 | -0.108 | -0.0453 |
| CAGGTGA | 0.153 | 0.0688 | 0.118 | 0.115 | 0.0537 | -0.0356 | 0.0141 | 0.14 | -0.0237 | 0.0638 |
| GCCACTT | 0.117 | 0.0529 | 0.217 | -0.854 | -0.00497 | 0.529 | -0.0836 | -0.0938 | 0.0949 | 0.203 |
| GCGAGTC | -0.0334 | -0.0261 | 0.137 | 0.533 | 0.0254 | 0.603 | 0.086 | 0.102 | 0.0454 | 0.0629 |
| TGTCAAT | 0.212 | 0.197 | 0.598 | 0.937 | 0.045 | 1.41 | -0.23 | 0.126 | 0.183 | 0.247 |
| TTATTAC | -3.39 | -0.96 | -0.596 | -2.5 | -0.129 | -0.761 | -3.31 | -0.25 | -0.124 | -0.534 |
| AAAACAC | 0.0334 | 0.114 | -0.103 | -0.7 | 0.106 | -0.713 | 0.0571 | 0.0518 | 0.0357 | 0.0626 |
